The labels stand for the following.
B1: GBRAP_160_4308 (protein)
chain: MEELEKLKKEIKEITEEALKMIEGQTAEQQKTIVRVTLGEILLLAFENPAISDELEEEIGKIADEAEEYLDANPDLSEEEIKELLKKTTEKILELIDKSL
B2: GBRAP_160_4522 (protein)
chain: SERLERIKELLEEAAEEAKKMIEGETAEQRAVIVDGEFGSLAMELALDPEVSDEEVDVVLEERDKLVATILANPDLTDEEVKELIEEAVERIKKKLEELF
B3: GBRAP_35_5543 (protein)
chain: SSDEEIAEMLVNTMEDIVLALPDVDDETFIALTEHLIRLAKDLVELKPKDKELIERAIEVLEEAIEIVKKSSLPEETRERLIEELEELKEELEKILKEVK
B4: GBRAP_52_6334 (protein)
chain: MEERIEEVARKIVEAVEAGKEEEAIELTKELAKEFSLEEVRRAMRLFAELAVARLPDREDLVMETAEKLADVIEEVTGDEVLADEFEAYTAALLHAARLA
B5: GBRAP_128_3315 (protein)
chain: MDEEKLEEAERLVEEMKKADLEELAELTARLVDLMGTLTPEEREIVAEIFREALKELSAEKLDVVADVLREKRPSLDPETANIVADLEVEALNEAEEKEE
B6: GBRAP_57_6470 (protein)
chain: EERLKKVEEHGEKALALIEAGAPTEEVLAEIGKMLEELSEETLRDILLIADPEAEYDISKEEAIARLLALARAYLEAGDTEAVRRLVELIEGQAEMDSEE
B7: GBRAP_43_5739 (protein)
chain: DQEVVDAAAEVALLALESEELDDETKIRIIKDFLEVFADSGLPGEELAKELAEKLDNYENPENVEEAIKLAKELAKKNPKYKKTFEAIAEYLKKLLEKLK
B8: GBRAP_14_3799 (protein)
chain: MEEREKAIEEITEETLEILEEILADAPEEVRERVLELVEEARERIIKEKLSPDEIAELEDELLEEVAKILADAPPEVRAQVLAAISVGMGEIILEVEELE
B9: GBRAP_184_5156 (protein)
chain: KILERVIEAENLEELKEKMEEVKEEAKKEKAEVIILLKTKKLTKEMVDALAEKIKEMKEEGYVKSITVGIDADVTEEMADYAIEKLDKAGAKVAIALPDE
B10: GBRAP_52_5882 (protein)
chain: SLEEAKKLLKEMIKAVAAGKEEEAKKIAKEIVEKFDDETIIEAVKELAEEIKSKSLEEAKAFYEAMELLAEVMEEMGRDPEVASLIEAIAGAALYEVEQK
B11: GBRAP_139_3742 (protein)
chain: SEMEKKVEEAAKKVAELKDDPEAVADYLTETIASVDEETAEKIARAAVEVLADLPVEERLALDDLILDKLEEAGVDEDKITIVEAELNGGLARHAYAEEL
B12: GBRAP_57_6474 (protein)
chain: SERLKKAEEYAEKALKAIEEGAPEEEILELVRKLAEQLSEESLRDVLLIADPSAEYDVSKEEAIEAIVALARKYLEAGDYEGLRRLVELLEGTAEMEHFE
B13: GBRAP_160_4509 (protein)
chain: SEKLEEIKKEIDEAREEIKREIEEGTVEEAIIVAAVELGEVIMELVEDESFSDEAEDAAAEIRDELVEELKRNKDASVEELKKIVDEKTEELKKTLKELS
B14: GBRAP_160_3990 (protein)
chain: EEKKKELLKEIEEIFKETYELAKGENPENRLTVVEVNMGEILLLAEESGILSEETIEKIDEILDETVEKVKANPNMTDEELKKLLDESLEKIKKIIEEEK
B15: GBRAP_125_3022 (protein)
chain: SKEELVEMLGAIAKALGFSEEDVEEIMRLAREHGLKGALIAIALALGEEELAELLEKLSEEEVAEVVKRLYEWLKAHPDATPEEVKEKLLELAKEAVEKK
B16: GBRAP_82_6869 (protein)
chain: KPVIVAEVVSMEPLTPEQMAEIEKVAEELKKEAAAKGIELKVIVADASDEAMEEMDKKLREIKKKYPDAVVVTGAVAKAEDVPEMLRAVADEALDEALER
B17: GBRAP_52_5950 (protein)
chain: ALEEALALLREALAAVLAGKEEEARAILRELVERFDLETIRAAAVALAKSLAGADDAELEAAVRLFDMLEDVLIEAGVPEEEAELIRGDAEAALAKAHAA
B18: GBRAP_53_6421 (protein)
chain: SSARIERLIAEIRAATEAATKADAEERKKLAEEIGALFAELKAAGMPDEEITALAEEVARKLKAAGADVSVLVALADTFAALGLDDATAAFGEVIVEDLE
B19: GBRAP_80_6758 (protein)
chain: SRAELEAALAELKALDPELGAELAAVLEEAIAAGVSVETAAAAVKALVELYKLDPEKARELARELIAELREAIAAGDVEGAEAALIDAESDALVEVEELE
B20: GBRAP_128_3221 (protein)
chain: AAEAAVARVRELLEAIKTADAATRKALAAELAALVASQPVDVAEAMAEVIEELAPELSEEDLEVLMDAFEAAARATSDDVALVLTEMAIIMGEEILELEE
B21: GBRAP_125_3091 (protein)
chain: EEETLREALRRLALAMGFSEEDAELLAELAAESSVRQALYALFAAEGYEEAADAVARLTEEQAREVLLRVSEWLKEHPNASKEEVVAKVLEAAEEALAAA
B22: GBRAP_184_5206 (protein)
chain: EVKEFEIEVENEEELKKKLEELLKELEGFKGTVYIIVKAPEFTEEMAKILLEKVKEIKEKGYATNIVVEIEGEVSEEVEDLLLEGAREIGANVVIALSEE
B23: GBRAP_26_5484 (protein)
chain: KEREILDELRARVREILADEPAEVQAAVVAEAEDRLIEFAEVVEENIDDEEKIKEAKEKALKELREFLEELGVPKEKQEKVVKALEEALKRVEEAIKKEA
B24: GBRAP_11_2640 (protein)
chain: KKEKYKKALELAEKAIELLDKLLKEGVDNKELWKEIEKLLKELKELVKEIPDKALQKEVEIALELLEEAKKDKENAEEYVKLLRNALRVIKAELEELIEE
B25: GBRAP_53_6390 (protein)
chain: SSARLEALIAELEALIEALKTADAAEAVALAKRARALLLELARAGLPEERLVELVRRFAEAAAPKPELRPVLIALAQELAALGRDEAAAEVAEALVEELE
B26: GBRAP_160_4324 (protein)
chain: KEELEKLKKEIREIAEEAIKMIEGESAEQRITIVKVALGEIILEVEENEAVSEETEEKVAEIADEAEAYLDANPDLSEEEVIALLREAEEKILKILEEEA
B27: GBRAP_53_6415 (protein)
chain: AAARIAALKAEILRLADEAAAADEETRARLVEEIARALAEAAAAGLPAAELTALAREVADRLAAAGAPDSDLVTLANALAALGLEEATAAVAERAVEELE
B28: GBRAP_52_6305 (protein)
chain: SAARMRALAEELVALTRAGDEEGVRALARRIAATLSDEELLALAEELAALAATWDEAELDRLMRMLDIWEDVAEEEGVDPGVIARARGIIVTALYAAELA
B29: GBRAP_122_2945 (protein)
chain: AATAARLEALVAAMVAALEAGDEERLAALARELVRLFETVSPEQARAAVERLLERVAGDEEAKERALRALLAAFTENEPLTPAQEAAADVVAEEFDKLSE

The results in this text go back to the supplement of paper PMC12632987.

The full ranking holds about 4,500 sequences; the median of “median log2 fold change of GCK-ALFA target abundance (FLAG IP / Myc IP barcode read proportion)” is about 0.078, and the lowest 2% start at about -0.6. Some of the results follow.

Sequence of GABARAP, O95166 (O95166 whole entry, the tested form may be a part): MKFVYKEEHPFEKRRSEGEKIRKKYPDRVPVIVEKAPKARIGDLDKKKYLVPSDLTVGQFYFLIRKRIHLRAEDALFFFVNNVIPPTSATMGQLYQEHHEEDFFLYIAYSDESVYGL

This experiment deals with GABARAP, O95166. In words: median log2 fold change of GCK-ALFA target abundance (FLAG IP / Myc IP barcode read proportion) (log2 ratio); each designed protein is fused to an ALFA-tag nanobody in HEK293 cells to bring the named protein to FLAG-tagged glucokinase (GCK); Myc marks an untargeted standard; higher = target protein stabilised (more abundant). The conditions noted are these: target protein: 3xFLAG-MCP-GCK-ALFA reporter; HEK293 landing pad (RPLP). The method, boiled down:
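Sequencing of reverse-transcribed, amplified circular RNA barcodes from anti-FLAG and anti-Myc immunoprecipitates provided the readout for an ALFA-nanobody-fused binder library recombined into HEK293 landing-pad cells. Those cells were induced with 2 μg mL^−1 doxycycline, transfected with a plasmid expressing a FLAG-tagged target and a Myc-tagged standard, and lysed after 48 h. Target abundance is the per-binder median log2 ratio of FLAG to Myc barcode read proportions. Only barcodes at a proportion of ≥10^−7 in both replicates and binders with ≥3 barcodes per replicate were kept, with a 10^−6 pseudocount added before the two replicates were pooled.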
Regarding B1, the “median log2 fold change” value is -0.463.

B2: the “median log2 fold change” value came out at 0.0223.

For B3, the “median log2 fold change” value was 0.204. Then B4, with -0.16. Turning to B5, the “median log2 fold change” value turned out to be 0.335. As to B6, the “median log2 fold change” value came out at 0.218. B7: the “median log2 fold change” value is -0.00175.

For the molecule B8, the “median log2 fold change” value is -0.611. The figure for B9 is 0.013; for B10 it is 0.174. As for B11, the “median log2 fold change” value stood at 0.187. As for B12, the “median log2 fold change” value was determined as 0.242. For B13, the “median log2 fold change” value amounted to 0.149. On to B14, for which the “median log2 fold change” value is -0.0665.

Take B15: the “median log2 fold change” value was 0.0394. For B16, the “median log2 fold change” value stood at 0.0109.

As for B17, the “median log2 fold change” value is -0.0682.

On to B18, for which the “median log2 fold change” value came out at 0.196. With B19, the “median log2 fold change” value turned out to be 0.0397. On to B20, for which the “median log2 fold change” value was 0.0438. Turning to B21, the “median log2 fold change” value was 0.145.

As to B22, the “median log2 fold change” value is -0.0683. For the molecule B23, the “median log2 fold change” value was determined as 0.267. Regarding B24, the “median log2 fold change” value stood at 0.233. Regarding B25, the “median log2 fold change” value amounted to 0.0029. B26: the “median log2 fold change” value was -0.358.

Regarding B27, the “median log2 fold change” value was found to be 0.232. Then B28, with 0.0566. Then B29, with 0.226.
